Reference: publication PMC12040169 (PLOS Biology, 2025)
The list shows a part of the results.

Each molecule was assayed on T1, C. trachomatis L2/434/Bu expressing GFP (CTL2-GFP). Settings: total inclusion area; 28.5 h, 10 µM; inhibitor.
T1 construct: L2/434/Bu GFP intracellular growth in HeLa cells
Set-up: species or system HeLa; C. trachomatis total inclusion area by high-content imaging, normalised to DMSO
Outline: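 Imaging read-out: GFP inclusions and Hoechst nuclei captured by high-content imaging after fixation. Inclusion area/number = chlamydial growth; nuclei count = host cell viability. MIC calculated per earlier method.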

Row | Compound | % of control remaining
1 | COc1ccc(CCCC(=O)Nc2ccc(N3CCNCC3)c3ccccc23)cc1OC [CBK028406T] | 97.0936
2 | Cc1cc(NC(=O)CN(C)CC(=O)Nc2ccc(Br)cc2C)no1 [CBK260700] | 49.9271
3 | O=c1nc(NN=C2CCCCC2)cn[nH]1 [CBK018838] | 91.4051
4 | Cc1nn(C2CCCO2)c(=O)nc1N (stereo not shown) [CBK021028] | 72.1644
5 | Cc1ccc(NC(=S)NCCNc2ccccn2)cc1Cl [CBK297544] | 110.035
6 | O=C(NCc1ccsc1)NCC1CCN(c2ccncc2)CC1 [CBK306394] | 76.3905
7 | CCCN(CCC)C(=O)Cn1cnc2ccc(Cl)cc2c1=O [CBK304651] | 44.7988
8 | Cc1ccccc1Nc1n[nH]c(=S)s1 [CBK015808] | 39.7487
9 | COC1CCN(C(=O)OCCc2cccnc2)CC1 [CBK200161] | 87.9845
10 | CC(C)C[C@H](NC(=O)NCCN1CCOCC1)C(=O)O [CBK286619] | 60.2043
11 | O=C(C1CCC1)N1CCC(c2onc3c2CCCCC3)CC1 [CBK284496] | 48.5582
12 | COc1ccc(Sc2nccnc2NC(C)C)cc1OC [CBK115249] | 91.7431
13 | COc1ccc(-c2oc3ncn4nc(COc5ccccc5C)nc4c3c2-c2ccc(OC)cc2)cc1 [CBK265283] | 106.498
14 | O=C(CSc1nc2ccccc2o1)N1c2ccccc2Sc2ccc(C(F)(F)F)cc21 [CBK018044] | 73.2284
15 | Cc1nc(C2CCCN2C(=O)CC2CCCC2)nc2c1CCCN2Cc1ccccn1 (stereo not shown) [CBK286252] | 109.564
16 | O=C(Nc1ccc(F)cc1)N1C2CCC1CC(O)(c1cccnc1)C2 (stereo not shown) [CBK281946] | 81.8491
17 | Cn1cncc1C(=O)NCc1ccccc1 [CBK200199] | 42.1981
18 | O=C(CC1CCCC1)N1CCC(c2nnc3n2CCCCC3)CC1 [CBK284630] | 103.128
19 | O=C(Nc1nnc(C2=COCCO2)o1)c1ccc(-c2ccccc2)cc1 [CBK287407] | 100.919
20 | CC(C)c1nc(NCCc2nnc3n2CCC3)nc(N(C)C)n1 [CBK306409] | 77.0098
21 | COc1cc(CNc2ccc(N3CCOCC3)cc2)ccc1OCc1ccc(Cl)cc1Cl [CBK074516] | 71.1047
22 | COC(=O)c1c(C(C)(C)C)c(O)c2ccoc2c1OC [CBK007577] | 55.0771
23 | Cc1n[nH]c(C)c1CCC(=O)N/N=C/c1ccncc1 [CBK262888] | 106.509
24 | Cc1cccc(N2NC(=O)/C(=C/c3cccn3-c3ccc(S(N)(=O)=O)cc3)C2=O)c1 [CBK265660] | 98.2425
25 | CC(Oc1ccc(Cl)cc1Cl)C(=O)NC1CC(C)(C)NC(C)(C)C1 (stereo not shown) [CBK263951C] | 96.8739
26 | Cc1ccc(-n2nnc(C(=O)N3CCCCC3C(=O)O)c2C)cc1 (stereo not shown) [CBK304109] | 33.2148

Row | Compound | % of control remaining
27 | CCN1C(=O)C2(CC(=O)N(Cc3ccccc3)C2=O)c2cc(Cl)ccc21 (stereo not shown) [CBK075233] | 113.354
28 | CCOc1ccc(S(=O)(=O)N2CCCC(C(=O)NCCO)C2)cc1 (stereo not shown) [CBK269968] | 78.197
29 | CCc1nc(COC(=O)C2CCN(C(=O)c3ccc(F)cc3)CC2)cs1 [CBK305725] | 61.4333
30 | COc1ccc(/C=C/C(=O)O)cc1S(=O)(=O)N1CCCC1 [CBK058388] | 121.223
31 | COc1cc2c(=O)n(C)c3nncn3c2cc1OC [CBK288182] | 110.574
32 | Cc1cccc(C)c1OCC(=O)NC(C)C(=O)O (stereo not shown) [CBK287185] | 110.083
33 | O=C(CSc1nc2[nH]ncc2c(=O)n1-c1ccccc1)Nc1nsc(-c2ccccc2)n1 [CBK266486] | 97.4121
34 | CCc1cn(CC(C(=O)OC)N(C)C)c(=O)[nH]c1=O (stereo not shown) [CBK289706] | 95.9913
35 | COc1ccc(Cl)cc1NC(=O)Cn1nc(-c2ccccc2)ccc1=O [CBK270124] | 104.178
36 | O=C(NC(=O)C1CCN(CCc2ccc3c(c2)CCO3)CC1)Nc1ccccc1Cl [CBK035147] | 104.075
37 | FC(F)(F)c1ccccc1NC(=S)Nc1ncn(Cc2ccc(Cl)c(Cl)c2)n1 [CBK267130] | 130.281
38 | CCC(Oc1ccccc1)C(=O)Nc1cc(C)on1 (stereo not shown) [CBK288152] | 113.133
39 | CCN(CC)C(=O)C1CCCN(C(=O)NCCc2ccc(OC)c(OC)c2)C1 (stereo not shown) [CBK156134] | 100.065
40 | NC(=O)c1ccc(C(=O)OCc2ccc(-c3ccccc3)cc2)cc1 [CBK297736] | 84.3405
41 | CC(=O)c1cc(C(=O)NCc2ccc(C)cc2)n(C)c1 [CBK296750] | 74.2716
42 | O=C1NC2(CCc3ccccc31)CCN(Cc1cccnc1)C2 (stereo not shown) [CBK284620] | 101.885
43 | Cn1cnc2ccc(NC(=O)CC3CCN(C(=O)CC4CCCCC4)CC3)cc21 [CBK285961] | 112.682
44 | COC(=O)C(C)(C)NC(=O)c1ccn(-c2cc(C)ccc2OC)n1 [CBK305989] | 22.3105
45 | c1cncc(COc2cncc(OC3CCN(CCN4CCOCC4)C3)n2)c1 (stereo not shown) [CBK084463] | 105.167
46 | Fc1ccc2c(c1)[C@@H](Oc1cncc(NC3CCCNC3)n1)CCO2 (stereo partly shown) [CBK172256G] | 91.843
47 | CN1CC[C@H](c2ccccc2)[C@@H]2[C@H]1CCCCN2C(=O)c1ccc(=O)oc1 [CBK285527] | 118.792
48 | CCN1CCCC1CNC(=O)c1ccc(-c2ccco2)nc1N1CCN(C(=O)c2ccco2)CC1 (stereo not shown) [CBK076206] | 100.828
49 | N#Cc1ccc(CN2CCCN(S(=O)(=O)c3ccc(C(F)(F)F)cc3Cl)CC2)cc1 [CBK062939] | 66.4672
50 | NC(=O)NC(CC(=O)N1CCc2sccc2C1)c1cccc(Br)c1 (stereo not shown) [CBK305813] | 60.396
51 | CCOc1ccc(S(=O)(=O)N(C)c2ccc(OCC(=O)O)cc2)cc1 [CBK296119] | 111.891
52 | Cc1cc(Sc2nc[nH]n2)c2c(Cl)ccc(Cl)c2n1 [CBK025959] | 43.811
